From the supplement of paper PMC4967469
IC50 is the fitted dose that halves viability relative to control wells, and lower means more sensitive; fits outside the tested doses are given as limits. AUC is the area under the same curve over the 256-fold range up to the top dose, as a fraction: 1 means no effect, lower means more sensitive. An inferred top dose is not printed in the source and was worked back from the curve model. For part of these data: An entry number marks a drug with two screens in the source, which often give different values.

Assays:
Assay in all cases: Viability of human cancer cell lines after 72 h of drug (GDSC screen)
SB-525334 = compound: Cc1cccc(-c2[nH]c(C(C)(C)C)nc2-c2ccc3nccnc3c2)n1 [SB-525334]; conditions: top dose 20 µM; top dose inferred
Description: (§1)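 Human cancer cell lines in 384-well plates, medium with 10% serum, drug for 72 h over a 256-fold dose range (nine 2-fold or five 4-fold steps up to the top dose). Adherent lines were fixed and stained with the nucleic acid dye Syto60, suspension lines read with resazurin; signal relative to control wells, capped at 0 and 100%. One two-parameter sigmoid per drug and line, fitted in a mixed model over all curves with the slope shared within a line.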

VX-702 = compound: NC(=O)c1ccc(N(C(N)=O)c2c(F)cccc2F)nc1-c1ccc(F)cc1F [VX-702]; conditions: top dose 2 µM; top dose inferred
Description: as §1

Olaparib = compound: O=C(c1cc(Cc2n[nH]c(=O)c3ccccc23)ccc1F)N1CCN(C(=O)C2CC2)CC1 [Olaparib]
Description: as §1

Wee1 inhibitor 681640 = compound: O=C1NC(=O)c2c1c(-c1ccccc1Cl)cc1[nH]c3ccc(O)cc3c21 [Wee1 inhibitor 681640]; conditions: top dose 2 µM; top dose inferred
Description: as §1

Shikonin = compound: CC(C)=CC[C@@H](O)C1=CC(=O)c2c(O)ccc(O)c2C1=O [Shikonin]; conditions: top dose 16 µM; top dose inferred
Description: as §1

BMS-536924 = compound: Cc1cc(N2CCOCC2)cc2[nH]c(-c3c(NC[C@@H](O)c4cccc(Cl)c4)cc[nH]c3=O)nc12 [BMS-536924]; conditions: top dose 4 µM; screen: GDSC drug entry 1091; top dose inferred
Description: as §1

BIRB 0796 = compound: Cc1ccc(-n2nc(C(C)(C)C)cc2NC(=O)Nc2ccc(OCCN3CCOCC3)c3ccccc23)cc1 [BIRB 0796]; conditions: top dose 10 µM; top dose inferred
Description: as §1

HG-5-113-01 = compound: CNC(=O)c1ccc(Nc2cc(Nc3ccccc3S(=O)(=O)C(C)C)c3cc[nH]c3n2)nc1 [HG-5-113-01]; conditions: top dose 10 µM; top dose inferred
Description: as §1

[1] = top dose 5 µM, screen: GDSC drug entry 1017, top dose inferred
[2] = top dose 10 µM, screen: GDSC drug entry 1495

| Cell Line | AUC (SB-525334) | IC50 (SB-525334) | AUC (VX-702) | IC50 (VX-702) | AUC (Olaparib; [1]) | IC50 (Olaparib; [1]) | AUC (Olaparib; [2]) | IC50 (Olaparib; [2]) | AUC (Wee1 inhibitor 681640) | IC50 (Wee1 inhibitor 681640) | AUC (Shikonin) | IC50 (Shikonin) | AUC (BMS-536924) | IC50 (BMS-536924) | AUC (BIRB 0796) | IC50 (BIRB 0796) | AUC (HG-5-113-01) | IC50 (HG-5-113-01) |
| --- | --- | --- | --- | --- | --- | --- | --- | --- | --- | --- | --- | --- | --- | --- | --- | --- | --- | --- |
| SiHa (cervix, adherent) | 0.987 | > 20 µM | 0.987 | > 2 µM | 0.987 | > 5 µM | 0.947 | > 10 µM | 0.985 | > 2 µM | 0.723 | 4.78 µM | 0.971 | > 4 µM | 0.912 | > 10 µM | – | – |
| T98G (glioma, adherent) | 0.981 | > 20 µM | 0.99 | > 2 µM | 0.96 | > 5 µM | 0.945 | > 10 µM | 0.922 | > 2 µM | 0.527 | 1.17 µM | 0.877 | 3.5 µM | 0.989 | > 10 µM | – | – |
| T-24 (bladder, adherent) | 0.988 | > 20 µM | – | – | – | – | 0.898 | > 10 µM | – | – | 0.71 | 3.78 µM | 0.976 | > 4 µM | – | – | 0.827 | 5.76 µM |
| T-T (oesophagus, adherent) | 0.943 | > 20 µM | 0.986 | > 2 µM | 0.961 | > 5 µM | 0.958 | > 10 µM | 0.91 | > 2 µM | 0.419 | 0.602 µM | 0.884 | > 4 µM | 0.895 | > 10 µM | – | – |
| TGBC11TKB (stomach, adherent) | 0.985 | > 20 µM | 0.992 | > 2 µM | 0.991 | > 5 µM | 0.984 | > 10 µM | 0.991 | > 2 µM | 0.656 | 2.55 µM | 0.981 | > 4 µM | 0.992 | > 10 µM | – | – |
| U-118-MG (glioma, adherent) | 0.952 | > 20 µM | 0.986 | > 2 µM | 0.984 | > 5 µM | 0.911 | > 10 µM | 0.97 | > 2 µM | 0.508 | 1.06 µM | 0.97 | > 4 µM | 0.984 | > 10 µM | – | – |
| WM793B (melanoma, adherent) | 0.905 | > 20 µM | 0.984 | > 2 µM | 0.961 | > 5 µM | 0.922 | > 10 µM | 0.936 | > 2 µM | 0.438 | 0.666 µM | 0.982 | > 4 µM | 0.984 | > 10 µM | – | – |
| YAPC (pancreas, adherent) | 0.961 | > 20 µM | 0.978 | > 2 µM | 0.983 | > 5 µM | 0.96 | > 10 µM | 0.965 | > 2 µM | 0.758 | 6.84 µM | 0.802 | 2.56 µM | 0.979 | > 10 µM | – | – |
| YKG-1 (glioma, adherent) | 0.964 | > 20 µM | 0.987 | > 2 µM | 0.927 | > 5 µM | 0.913 | > 10 µM | 0.89 | > 2 µM | 0.27 | 0.218 µM | 0.952 | > 4 µM | 0.976 | > 10 µM | – | – |
